# The supplement of paper PMC11417369
# The other results are listed elsewhere or left out.
# System: PfAP2-HC AP2 domain (GST-tagged)
# Test: gcPBM binding intensity (ln(normalized median fluorescence intensity)); higher = stronger DNA binding
# Outline: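 GST-tagged P. falciparum DNA-binding domains, expressed in E. coli (about 25 μg on average), were applied for 1 h to an Agilent 4 × 180k array of primer-extended double-stranded 36-bp intergenic genomic probes plus negative controls. The binding buffer was 1× PBS with 1% milk, 0.2 mg/ml BSA, 0.5% salmon testes DNA and 0.03% Triton X-100. Bound protein was detected with Alexa488 anti-GST antibody and scanned at 488 nm. Binding intensity is the highest Masliner-normalised natural-log median intensity across replicate spots of either probe orientation.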
row,Sequence,gcPBM binding intensity (ln)
1,TAAAATTTAAATTATACACACTTAAGTAACATCATC [CACACA_site4450],9.73
2,ATTTATTTCACAAAAACATGCAGTTTGAAATTGCCA [TGCATGCA_site910],9.39
3,AATTCATTATATATACGTACATATTTCTGTATAAAA [XGTACX_site6371],9.51
4,GCATAAATTATCATAACATAAATATAAAAATATAAT [GTGCAC_negctrl_site55],9.63
5,GATTATTTTATAAGTACACACATTTATATATAATAA [CACACA_site2573],9.68
6,TTATATAGGTCATTCATAAATACAGTTTTTAAAAAA [CACACA_negctrl_site1340],9.47
7,TTCATGCTTATATGTGCACACACAAAAGAAAAGAAA [CACACA_site1656],10.1
8,AAATAATAAATTATAACACACATATATATATATATA [CACACA_site4045],9.6
9,ATAATACAATTTATAACACACACACTATAATACATA [CACACA_site8338],10.4
10,GGAAAGACAGTTCACAGTACCCAGTAACTCTACGGA [XGTACX_site2009],9.55
11,TTTCACCATATAAACGTGCACACTACAAAAATATAT [CACACA_site2547],9.72
12,AAATAATGAAACAAAGTGCATAAAAATATACATATA [GTGCAC_site9467],9.85
13,CATTAAAATATGAGATGTACACAATATCTATTATAT [XGTACX_site4979],9.63
14,ATGGATTATACGTGCACACATATATACCAATAAATA [CACACA_site4524],9.99
15,ATTTAAATATCTTCTTTTTTTTTTTTTTTTGAAATT [CACACA_negctrl_site1074],9.21
16,GAGCGTAATCTATTTGCACACTTATTTGTTCTTAAA [CACACA_site673],9.87
17,GTGTATAATATAGGATGTACAATAAAACACCGATTG [XGTACX_site7429],9.82
18,TTGTTTATCAACAGCACACACAACAACAACAACAAC [CACACA_site458],9.99
19,ATAAAAACATAAACAAATCAAAAAAAAAAAAAAAAA [CACACA_negctrl_site13],8.9
20,AATGGCAAAATAGGCACACACACATATACATATATA [CACACA_site1058],10.9
21,TGTGCACATAATTAGTGTACATTTTTTATTTAGACA [XGTACX_site317],9.45
22,AATTATATTTGAAATACACACATAAAAATCATATAG [CACACA_site3468],9.82

row,Sequence,gcPBM binding intensity (ln)
1,AAAAAAAAAAAAAATACACACATATAAATATAAATA [CACACA_site6189],9.85
2,CTTATTGATTTAAAAAGTACATATATGTATATACAC [XGTACX_site4072],9.59
3,ATTAGAGAATCGTAACCCAAATGAACATACTTAAAT [GTGCAC_negctrl_site363],9.61
4,AGATTTAAATATCATACACACTTTATATATAATACA [CACACA_site4688],9.7
5,GTGTACAGACACAAAATATATACATATATATATATA [CACACA_negctrl_site1796],9.51
6,TGTTATATGTTCAAATGTACAAATCATATACATGTT [XGTACX_site3192],9.64
7,AATATATAAACCGAACGTACATATTTTTTATACACC [XGTACX_site2121],9.75
8,ATTATTTTCTCATAGAGTACAAATGTTGTTGTTGTC [XGTACX_site1062],9.61
9,TATTTTCATAATAAAAAAAAATAATTTAAAAAATAT [CACACA_negctrl_site748],9.26
10,TTTTTATTTTTAGTAGTGCATTAATCATATGGTCAT [GTGCAC_site9879],9.53
11,TAAATAAATCCACATACACACACGACGCTAGTATAT [CACACA_site1060],9.97
12,AATATTTTATTTTTTCTCATTAAAAATTTTTTTTTT [CACACA_negctrl_site364],9.52
13,GATAGATAATATTTTAGTACATAAACAATTAAATAT [XGTACX_site4125],9.64
14,ATAATATTTTATAATTGTACTTTTTATAAATATAAA [XGTACX_site1940],9.39
15,CATATTTACATTAAGTGTACTTATGAATATATATAC [XGTACX_site7962],9.62
16,AAAATACATATATATATATATAATATTGTTGTTAAA [GTGCAC_negctrl_site519],9.64
17,ATATTTTTTTTCATTTGTACACATAAAATTATATAG [XGTACX_site8260],9.68
18,ATTATTCGTTTTAAATGTACTCATATAAACGATAAA [XGTACX_site7866],9.28
19,CAAAAGAAGGTAAACACACACACACCCATACAAAAA [CACACA_site3765],10.7
20,TTTTATAATTTCAAAGGATTCTTTAATATTATAAAT [CACACA_negctrl_site1812],9.32
21,AAATTATATATAATAAATAATTTCTTTTTCTAAAAG [CACACA_negctrl_site8],9.22
22,AAAAAAAAAAAAAAAAGTACACACTTTTGCCTACAT [XGTACX_site6583],9.73

row,Sequence,gcPBM binding intensity (ln)
1,AATAATTGCTAAAGGTGTACAATACGTATATAAGAA [XGTACX_site4910],9.95
2,TACAGAAATTTATATATATATATATATATATATATA [XGTACX_negctrl_site209],9.61
3,AAATCAAAAACGTTTACACACATTCTTATTTAAATA [CACACA_site790],9.79
4,TGAGACATGAATGCAAGTACAAAAAGGAGAACAAAA [XGTACX_site6183],9.67
5,TACATATATTTTTTATGTACTTACTTGTGTGTTTAT [XGTACX_site5126],9.87
6,AAATGTTGAAATGATACACACATATATATATATATA [CACACA_site2517],9.71
7,TTTATTAAAACAAAATGTACACACATATAATTTAAT [XGTACX_site1637],9.7
8,TAAATTCTGTTTAAAAGTACAAATAATATTGTGCCT [XGTACX_site7805],9.53
9,TTAATCTTCATAAAATGTACAGAAGATTGAATATTC [XGTACX_site6213],9.35
10,TGAAAGTGTATTAAAGTGCATATTATTTTATCTACC [GTGCAC_site9969],9.69
11,TTAATAACAAAATAAACACACATATATAAATACACA [CACACA_site6849],10.5
12,TTATATTTTTTTTGTAGTACATTATAGAATACACAC [XGTACX_site969],9.79
13,ATATATATTCATAATACACACATTCTGTAGCATTAT [CACACA_site2067],9.9
14,ATAGTATCTGGTAGCTGTACGAATGGTAGAGAGTAG [XGTACX_site2548],10.1
15,AATAAAAAGATATTCTCCTTGTTCCTTTTTTTTAAA [CACACA_negctrl_site1147],9.46
16,TATATATATGTATGATGTACATATATGCATATATAT [XGTACX_site3399],9.6
17,TTAATTAAATATTATACACACAAAAAAATAATTTTA [CACACA_site96],9.61
18,ATTTTAACCAATTATTGTACTTGGTTATTCTTTTTT [XGTACX_site7453],9.93
19,AATCTATATTGACACACACACAAAAAAAAAAAAAAA [CACACA_site6739],10.1
20,ATATTTTTTTTCTTCACACACATGAATTATATATAA [CACACA_site3216],9.98
21,ATATATATATTAAAGGTGCACAAATAAATATATACA [GTGCAC_site9532],9.87
22,AATATACACATTGTGAAATAACAAAAAAGGCAAAAA [CACACA_negctrl_site1014],10

row,Sequence,gcPBM binding intensity (ln)
1,CCTATTTATATATACACACACATATATAAATAAATA [CACACA_site2991],10.1
2,ATGGAAAAATGTATATATAAAATAAATATATTATAT [CACACA_negctrl_site1712],9.68
3,CATATTAAAAATACATGTACATATATATTTAATATA [XGTACX_site8580],9.51
4,GTTAAAATAATATTATGTACATATATATAAAAATAT [XGTACX_site8512],9.67
5,TATAAATATGTGTTTACACACAATAATGAATTAAAA [CACACA_site6555],9.81
6,GTTTGTAAATATTTTACACACATATTTATTTATATA [CACACA_site6632],9.77
7,AACCTCAAATACACAAGTACGTATAATAAGGAACAA [XGTACX_site4304],9.8
8,ATTCAATAATTGTTTTTTTTCTTTTTGTTTTTGTTT [GTGCAC_negctrl_site563],9.62
9,TATCTCATTTGGAATTGTACTAACAGATACTTGTTT [XGTACX_site2672],9.67
10,TATACGCATATTTTTACACACATATTTTTTCATATA [CACACA_site2546],10.1
11,TATATATAATATATATGTACATATGTATAATATTTA [XGTACX_site4400],9.61
12,TTATGAAAAAAATACTGTACACAATATGACGAAAGT [XGTACX_site2283],9.81
13,TTTTAAATAAATCATGCATGCACATATAATTATATT [TGCATGCA_site151],9.71
14,CATATTAGGACAAAGTGTACATATATATATATATAT [XGTACX_site1172],9.65
15,AAATTATTGAAATACGCATGTGTTTTTTTTTTTTTT [TGCATGCA_site391],9.6
16,AATATTACGTCTGGACGTACAAATCTTTTTCGTGTC [XGTACX_site6644],9.6
17,ACATTTTTTTTTTTTTTTTTTTTCTTACATCATGCA [CACACA_negctrl_site1413],9.54
18,ATATAAAGGTTTATTAGTACACATTAGAATACTTTT [XGTACX_site4492],9.52
19,TTTTACTAGATATATACACACATTATACCTATAGAT [CACACA_site7530],9.87
20,GAAATATTTTGTTGTGCATGCGACATTAAATAAAAA [TGCATGCA_site331],9.59
21,AAAAAATATATATCACGTGGTAATATATATATATAT [XGTACX_negctrl_site252],9.66
